Experimental data taken from PubChem BioAssay AID686979 (National Center for Advancing Translational Sciences (NCATS), 2013).
Out of some 420,000 compounds screened, about 50,000 (12%) were called active. The shares of active, inactive and inconclusive entries below differ from those in the screen. Calls follow the shape of the dose curve; as a rule, active = well fitted inhibition curve with a large enough effect; inconclusive = small, poorly fitted or top-dose-only effect; inactive = flat fitted curve, though single readings scatter. Potencies of inconclusive entries are left out as doubtful fits.

Assay: qHTS for Inhibitors of human tyrosyl-DNA phosphodiesterase 1 (TDP1): qHTS in cells in presence of CPT; also: nearly all actives have a fitted effect of over 55% in size
Details: chicken DT40 Tdp1-/-;hTDP1 cells + 20 nM CPT, ATP luminescence, 48 h; series mostly up to 46.2 µM
In short: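 Chicken DT40 Tdp1-/- cells stably complemented with human TDP1 were seeded at 400 cells/well in medium containing 20 nM camptothecin, exposed to pin-transferred compounds, and grown at 37 °C for at least 48 hr. Viability was read as ATP luminescence.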
Potency is read from the fitted curve at half-maximal effect; tags tell the direction and shape of the fitted curve.

**Q.** With `O=C1/C(=C/c2ccccc2Cl)N2CCC1CC2` as the compound, how does the Potency read?
**A.** inconclusive [inhibitor, single point]

**Q.** With `Cc1ccc(Nc2nnc(-c3ccc(C)c(S(=O)(=O)NCc4nc5ccccc5[nH]4)c3)c3ccccc23)cc1` as the compound, how does the Potency read?
**A.** inconclusive [inhibitor, single point]

**Q.** With `ClCCN(CCCl)c1ccc(C=Nc2ccc(/C=C/c3ccncc3)cc2)cc1` as the compound, how does the Potency read?
**A.** active: 12.6 µM

**Q.** Which Potency does the source give for `CC(=O)c1cn(CC(=O)NCCc2c[nH]c3ccccc23)c2ccccc12` here?
**A.** active: 16.4 µM

**Q.** For `COc1cc2nc(N3CCCN(C)CC3)nc(N(C)C3CCN(C)CC3)c2cc1OC`, which Potency is on record?
**A.** active: 6.31 µM

**Q.** Which Potency does the source give for `CC(=O)OCC(=O)[C@H]1CC[C@H]2[C@@H]3CC[C@H]4C[C@H](O)CC[C@]4(C)[C@H]3C(=O)C[C@]12C` here?
**A.** inactive

**Q.** Which Potency does the source give for `O=C(Cc1ccccc1)N1CCN(C2CCCC2)CC1` here?
**A.** inactive

**Q.** For `COc1ccc(Br)cc1CNCCc1ccc2c(c1)OCO2`, which Potency is on record?
**A.** inactive

**Q.** With `O=C(CN1CC(c2ccccc2)CC1=O)Nc1ccc(F)cc1` (centres undefined) as the compound, how does the Potency read?
**A.** active: 2.91 µM

**Q.** For `CC1CN1P(=S)(c1ccccc1)N1CC1C` (centres undefined), which Potency is on record?
**A.** inactive

**Q.** Which Potency does the source give for `COc1ccccc1CNC(=O)CCC1N=C2c3ccccc3N=C(SCc3cccc(Cl)c3)N2C1=O` (centres undefined) here?
**A.** inconclusive [inhibitor, single point]

**Q.** With `Cc1nc2ccccc2c(=O)n1-c1ccc(C(=O)O)cc1` as the compound, how does the Potency read?
**A.** inactive

**Q.** With `CCOC(=O)c1c(C)n(Cc2ccco2)c2ccc(OC)cc12` as the compound, how does the Potency read?
**A.** inconclusive [inhibitor, single point]

**Q.** For `CC(=O)c1ccc(OC(C)C)c(Cc2c(O)[nH]c(=S)[nH]c2=O)c1`, which Potency is on record?
**A.** inactive

**Q.** With `COC(=O)C1=C(C)n2nnnc2NC1c1ccc(Cl)cc1` (centres undefined) as the compound, how does the Potency read?
**A.** inconclusive [inhibitor, single point]

**Q.** With `CCOc1ccccc1NC(=O)c1cccn(Cc2ccccc2C)c1=O` as the compound, how does the Potency read?
**A.** inactive

**Q.** Which Potency does the source give for `CCOc1ccc(C2(C#N)CC[N+](C)(C)CC2)cc1` here?
**A.** inactive

**Q.** Which Potency does the source give for `C[N+]1(CC(COCc2ccccc2)OC(=O)Cc2ccccc2)CCOCC1` (centres undefined) here?
**A.** inactive

**Q.** With `CCOC(=O)c1cccc(C2=C(CNC(=O)c3ccc([N+](=O)[O-])cc3)[C@H]3CC[C@@H](C2)N3Cc2ccccc2)c1` as the compound, how does the Potency read?
**A.** inconclusive [inhibitor, single point]

**Q.** Which Potency does the source give for `COc1cc2[nH]c(=O)n(CCCCCC(=O)N3CCN(c4cccc(C(F)(F)F)c4)CC3)c(=O)c2cc1OC` here?
**A.** inconclusive [inhibitor, single point]

**Q.** For `CC(C)CS(=O)(=O)C1=NN2C(=N)/C(=C\c3ccc(OC(=O)c4ccco4)cc3)C(=O)N=C2S1`, which Potency is on record?
**A.** inconclusive [inhibitor, full curve, poor fit]

**Q.** With `COC(=O)C1=C(c2cccc(C#N)c2)C[C@@H]2CC[C@H]1N2C(=O)NCc1cccc2ccccc12` as the compound, how does the Potency read?
**A.** inconclusive [inhibitor, single point]

**Q.** With `CCN1CCN(c2ncnc3ccc(Br)cc23)CC1` as the compound, how does the Potency read?
**A.** inconclusive [inhibitor, partial curve]

**Q.** For `O=c1[nH]c(CN2CC=C(c3ccccc3)CC2)nc2scc(-c3cccs3)c12`, which Potency is on record?
**A.** inconclusive [inhibitor, single point]
